Hit rate of the full screen: of about 150,000 compounds, about 540 (0.36%) showed an effect of 50% or more. The list shows a part of the results.

For the test, the system named is Plasmodium falciparum. As to the kind of experiment: Primary screen in NF54 nanoGlo assay, in single point, at 2uM, 72h; a lower Z score goes with more inhibition. The settings on record: timepoint 72 hour. It is filed as functional, Erythrocyte.
Regarding `CC(C)(C)OC(=O)N[C@H]1CCN(c2ncc(Br)cn2)C1`, the % Inhibition (usually the change of the read-out against control, counted positive when it falls) stood at 9% and the Z score is -0.98.

In the case of `COc1ccc(C(=O)N2C[C@H](O)[C@@H](N3CCCC3)C2)cc1F`, the “% Inhibition” value was -6% and the Z score is reported as 1.22.

In the case of `Cc1ccc(F)cc1C(=O)N1C[C@@H]2c3ccccc3OC[C@]2(CO)C1`, the “% Inhibition” value is listed as -8% and the Z score was found to be 0.94.

`CC(=O)Nc1ccc([C@]2(O)COc3ccccc3O2)cc1`: the “% Inhibition” value is listed as 5% and the Z score was -0.96.

In the case of `Cc1cccc(OC[C@@H](O)CN2CCN(c3nc(C)ns3)CC2)c1`, the “% Inhibition” value is given as 8% and the Z score was -0.73.

Take `Cc1ccc(-c2noc(-c3ccc(=O)n(Cc4cc(C)ccc4C)c3)n2)cc1`: the “% Inhibition” value is reported as -1% and the Z score is 0.17.

On to `O=C(NCC[C@H]1CCc2ccccc2N1)c1cnc2n1CCCCC2`, for which the “% Inhibition” value is given as -6% and the Z score amounted to 0.99.

Regarding `COC[C@H]1CC[C@H]1NC(=O)COc1ccc(CO)cc1`, the “% Inhibition” value is on record as -6% and the Z score is 0.85.

For `COc1ccccc1NC(=O)CN1C(=O)NC2(CCCCCCC2)C1=O`, the “% Inhibition” value is -16% and the Z score is listed as 2.07.

Turning to `COc1ccc2c(c1)CCc1c-2n[nH]c1-c1ccc(C(=O)NCCC(c2ccccc2)c2ccccc2)cc1`, the “% Inhibition” value is -9% and the Z score turned out to be 1.07.

Take `O=C(O)c1cccc(C(=O)N(Cc2ccccc2)CC2CCOCC2)n1`: the “% Inhibition” value is on record as -20% and the Z score stood at 1.65.

On to `CCC1(CC)CCN(C(=O)C2C3CCCCC32)CC1` (stereo unspecified), for which the “% Inhibition” value is -14% and the Z score amounted to 2.87.

Take `COc1ccc(C(=O)N2CC(Cn3cncn3)C2)cc1F`: the “% Inhibition” value is -18% and the Z score was determined as 2.32.

Turning to `CC(C)(C)C(=O)N1CCN(c2cc(N3CCCC3)ncn2)CC1`, the “% Inhibition” value was -11% and the Z score was 1.28.

Take `COc1nccc2c(NC(=O)N3CC[C@@](O)(C(N)=O)C3)cccc12`: the “% Inhibition” value is reported as 0% and the Z score is reported as 0.02.

In the case of `O=C1NCCCCCCN(S(=O)(=O)c2cccnc2)[C@H]2C[C@H](c3nc(-c4cccnc4)no3)C[C@@H]12`, the “% Inhibition” value is -6% and the Z score was found to be 0.74.

For `COc1cc(C(=O)NCCNC(=O)c2nc(-c3ccc(C(F)(F)F)cc3)no2)cc(OC)c1OC`, the “% Inhibition” value was -13% and the Z score is 1.68.

Turning to `CCCc1nnc(N2CCC(N(C)CCN(C)C)CC2)s1`, the “% Inhibition” value is given as -9% and the Z score worked out at 1.42.

On to `Cc1nc(N)ccc1-c1cccc(C(=O)N(C)C2CCN(C)CC2)c1`, for which the “% Inhibition” value is listed as -2% and the Z score was determined as 0.23.

`CN(C)Cc1cccc(CN(C)Cc2cnc(N3CCCC3)s2)c1`: the “% Inhibition” value was -18% and the Z score is 3.34.

On to `Cc1ccc2c(c1)n(Cc1cccc(Cl)c1)c(=O)c1nc(C(=O)Nc3c(C)cccc3C)nn12`, for which the “% Inhibition” value is -9% and the Z score is recorded as 1.03.

Take `Cc1c(C(=O)Nc2nnc(C)n2C2CC2)nnn1CCOc1ccc(F)cc1`: the “% Inhibition” value is -1% and the Z score came to 0.09.

Take `C[C@H]1CN(C(=O)c2ncoc2-c2ccc3c(c2)OCCO3)CCN1`: the “% Inhibition” value is on record as -15% and the Z score turned out to be 1.95.

`CC(C)c1cccc(-c2cc(NCc3ccccn3)nc3[nH]ccc23)n1`: the “% Inhibition” value is -5% and the Z score came to 0.74.

On to `CCN1C(=O)[C@H](CC(=O)NCc2ccc(Cl)cc2)N(CC)C1=O`, for which the “% Inhibition” value was -3% and the Z score turned out to be 0.6.

For the compound `COc1ccccc1-n1c(=O)n(CC(=O)NC2CCCCC2)c(=O)c2c(C)cc(C)nc21`, the “% Inhibition” value stood at 3% and the Z score is listed as -0.43.

For the compound `Cc1nn(C)c(C)c1NC(C)C1CCCN(C(=O)OC(C)(C)C)C1` (stereo unspecified), the “% Inhibition” value turned out to be 0% and the Z score is 0.03.

Consider `Cc1nn(-c2ccc(Cl)cc2)c(NC(=O)c2ccccc2F)c(-c2ccccc2)c1=O`, for which the “% Inhibition” value is -4% and the Z score is 0.49.

As for `Cc1ccc(-n2cnc3cc(C(=O)N4CCc5ccccc54)ccc32)c(C)c1`, the “% Inhibition” value was 0% and the Z score is on record as 0.06.

For the compound `CCc1cc(N2CCN(CCc3ccccc3)C(=O)C2)ncn1`, the “% Inhibition” value is given as -15% and the Z score was determined as 2.

As for `C[C@H](Nc1cnn(CCN(C)C)c1)c1ccc2c(c1)OCCO2`, the “% Inhibition” value is recorded as -10% and the Z score amounted to 1.84.

Take `Cc1cnn(CC(=O)Nc2c(F)cccc2Oc2ccccc2)c1`: the “% Inhibition” value is reported as -11% and the Z score amounted to 1.56.

As for `Cc1cccc(C)c1OCCN(C)S(=O)(=O)c1c(C)noc1C`, the “% Inhibition” value was -5% and the Z score is 0.45.

As for `Cc1nc(N2CCCC2)nc(C)c1NS(=O)(=O)Cc1ccccc1`, the “% Inhibition” value is -14% and the Z score came to 2.16.

Regarding `O=C(CN1c2ccccc2-c2ccccc2S1(=O)=O)NC1CCCC1`, the “% Inhibition” value is reported as 3% and the Z score was -0.53.

For the compound `C[C@@H](C(=O)NCCc1nnc2ccccn12)c1ccc(C[C@@H]2CCCC2=O)cc1`, the “% Inhibition” value was -9% and the Z score amounted to 1.22.

With `CC1CN(CC2CCN(c3ccc(S(N)(=O)=O)cn3)CC2)CC(C)O1` (stereo unspecified), the “% Inhibition” value was -4% and the Z score is recorded as 0.75.

On to `C=CC[C@H](C)C(=O)N1CCC(n2cnc3ccc(F)cc32)CC1`, for which the “% Inhibition” value is given as -4% and the Z score was determined as 0.75.

As for `Fc1ccc(Oc2ncccc2CNc2ncccc2Cl)cc1F`, the “% Inhibition” value was -8% and the Z score is 0.99.

For the compound `COc1ccc(CNC(C)C2CCCO2)cn1` (stereo unspecified), the “% Inhibition” value was -13% and the Z score was 1.71.

On to `Brc1ccc(Nc2ccc3ccccc3n2)nc1`, for which the “% Inhibition” value stood at 6% and the Z score is given as -1.22.

`Cc1ccccc1C(C)CC(=O)N1CCCC(N2CCNCC2=O)C1` (stereo unspecified): the “% Inhibition” value is on record as 1% and the Z score is -0.15.

For `Cc1ccsc1CNC(=O)c1ccnc2c(C(N)=O)cnn12`, the “% Inhibition” value is recorded as -2% and the Z score is 0.31.

As to `Cc1cc(NC(=O)C2CCN(Cc3nc4ccccc4[nH]3)CC2)ccc1Br`, the “% Inhibition” value was -10% and the Z score is listed as 1.47.

For `Cc1cc(C)c2nc(-n3cncn3)c(C)cc2c1`, the “% Inhibition” value was -12% and the Z score came to 1.44.

As for `O=C(Nc1cccc(Cl)c1)C1=NCCN1`, the “% Inhibition” value is on record as -14% and the Z score was found to be 1.68.

For `COc1ccc(-c2c(-c3ccc(Cl)cc3)[nH]c3c2c(=O)[nH]c(=O)n3C)cc1`, the “% Inhibition” value is on record as -5% and the Z score was 0.54.

Turning to `CC(C)(C)OC(=O)NCC1CCN(C(=O)c2snc(O)c2Cl)CC1`, the “% Inhibition” value is -7% and the Z score amounted to 0.89.

On to `CCn1ncc(CN(C)C(=O)CCn2nc(C)c(Cl)c2C)c1C`, for which the “% Inhibition” value was found to be 11% and the Z score is -1.4.

As for `Cc1cc(C)cc(N2C(=O)C3N=NN(c4cccc(C(F)(F)F)c4)C3C2=O)c1` (stereo unspecified), the “% Inhibition” value is given as 5% and the Z score is reported as -0.61.

Consider `O=C(CCc1nccs1)N1CCCC[C@@H]1Cc1ccc(F)cc1`, for which the “% Inhibition” value is listed as -17% and the Z score was found to be 3.23.

Regarding `O=C(COC(=O)c1ccccn1)Nc1ccc2c(c1)CCC2`, the “% Inhibition” value is given as -1% and the Z score was 0.18.

Regarding `CCn1nc(C(=O)NCc2ccncc2)c2c1CC[C@H](O)C2`, the “% Inhibition” value is recorded as 1% and the Z score is listed as -0.27.

(Values after ChEMBL document CHEMBL4888484, “Replenishing the malaria drug discovery pipeline: Screening and hit evaluation of the MMV Hit Generation Library 1 (HGL1) against asexual blood stage Plasmodium falciparum ,using a nano luciferase reporter read-out” (2022).)
